The values that follow come from PMC4336329 (PLoS ONE, 2015).

Among all 310,000 compounds or so, about 2,200 (0.71%) showed an effect of 50% or more. The effect is printed as a negative number. The list shows a part of the results.

Sequence of human ether-à-go-go-related gene (hERG) potassium channel (Q12809 whole entry, looked up): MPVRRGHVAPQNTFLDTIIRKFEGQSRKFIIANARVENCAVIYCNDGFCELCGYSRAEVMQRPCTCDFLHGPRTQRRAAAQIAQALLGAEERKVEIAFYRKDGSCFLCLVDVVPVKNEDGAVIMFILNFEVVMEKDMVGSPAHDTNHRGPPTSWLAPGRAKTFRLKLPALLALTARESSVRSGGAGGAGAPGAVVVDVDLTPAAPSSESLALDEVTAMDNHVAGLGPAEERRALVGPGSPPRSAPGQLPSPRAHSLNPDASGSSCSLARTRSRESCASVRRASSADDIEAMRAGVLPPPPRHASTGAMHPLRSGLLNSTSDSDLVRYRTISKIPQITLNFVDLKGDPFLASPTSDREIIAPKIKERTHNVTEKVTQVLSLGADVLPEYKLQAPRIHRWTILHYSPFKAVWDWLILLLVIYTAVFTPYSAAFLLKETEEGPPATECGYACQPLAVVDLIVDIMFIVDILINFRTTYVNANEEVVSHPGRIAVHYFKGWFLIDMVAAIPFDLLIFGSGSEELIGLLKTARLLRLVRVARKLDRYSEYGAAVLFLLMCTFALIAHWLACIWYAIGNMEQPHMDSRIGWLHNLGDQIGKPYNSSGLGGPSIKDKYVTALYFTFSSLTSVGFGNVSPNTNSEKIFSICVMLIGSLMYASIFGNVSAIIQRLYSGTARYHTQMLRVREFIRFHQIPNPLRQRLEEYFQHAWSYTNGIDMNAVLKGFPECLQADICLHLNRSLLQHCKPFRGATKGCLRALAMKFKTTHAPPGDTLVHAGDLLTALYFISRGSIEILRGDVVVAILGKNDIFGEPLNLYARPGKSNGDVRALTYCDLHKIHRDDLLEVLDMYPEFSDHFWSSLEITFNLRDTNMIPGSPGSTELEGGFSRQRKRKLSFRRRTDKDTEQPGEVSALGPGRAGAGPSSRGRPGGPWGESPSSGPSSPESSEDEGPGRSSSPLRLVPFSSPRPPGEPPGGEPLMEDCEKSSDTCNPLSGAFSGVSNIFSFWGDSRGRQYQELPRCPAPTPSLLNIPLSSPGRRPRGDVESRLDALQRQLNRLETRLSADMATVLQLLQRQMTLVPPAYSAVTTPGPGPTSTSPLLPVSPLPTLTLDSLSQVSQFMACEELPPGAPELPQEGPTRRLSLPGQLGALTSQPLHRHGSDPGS

The assay concerns the target human ether-à-go-go-related gene (hERG) potassium channel (human, UniProt Q12809). As to the kind of experiment: primary screen, population patch clamp on CHO cells stably expressing hERG.
Turning to `CCc1nc(C)ccc1OCC(=O)NCCCN(C)C.O=C(O)C(=O)O`, the “hERG current change (%, negative = inhibition) at 1uM” value is 7.43%.

Regarding `CC(NC(=O)OCc1ccccc1)C(=O)Oc1cc2oc(=O)cc(-c3ccccc3)c2cc1Cl` (stereo not shown), the “hERG current change (%, negative = inhibition) at 1uM” value is given as 9.47%.

Regarding `Cc1ccc(C)c(-n2c(Cc3cc(=O)[nH]c(=O)[nH]3)nnc2SCC(=O)NCc2ccco2)c1`, the “hERG current change (%, negative = inhibition) at 1uM” value is on record as 6.13%.

Take `COc1ccc(-n2c(SCC(N)=O)nc3sc4c(c3c2=O)CCN(C)C4)cc1`: the “hERG current change (%, negative = inhibition) at 1uM” value is 17.2%.

Turning to `CC1=C(C(=O)Nc2ccccc2)C2(CCCCC2)C(C#N)=C(S)N1`, the “hERG current change (%, negative = inhibition) at 1uM” value worked out at 6.12%.

`CC(Oc1ccccc1)C(=O)Nc1oc(-c2ccco2)c(-c2ccco2)c1C#N` (stereo not shown): the “hERG current change (%, negative = inhibition) at 1uM” value is 13.8%.

With `NS(=O)(=O)c1ccc(CCNC(=O)C(c2ccccc2)c2ccccc2)cc1`, the “hERG current change (%, negative = inhibition) at 1uM” value was determined as 11.6%.

For `Cc1noc(C)c1COc1ccc(C(=O)OCC(=O)OC(C)(C)C)cc1`, the “hERG current change (%, negative = inhibition) at 1uM” value amounted to 11.7%.

With `CCCC(=O)Nc1c2c(nn1-c1ccc(OC)cc1)CS(=O)C2` (stereo not shown), the “hERG current change (%, negative = inhibition) at 1uM” value is reported as 11%.

For `COc1ccc(C(=O)NC(C)c2nnc(SCC(=O)Nc3nc4ccccc4s3)n2C)cc1` (stereo not shown), the “hERG current change (%, negative = inhibition) at 1uM” value is -4.28%.

In the case of `CC(C)CN(C(=O)c1ccc(N2CCCC2=O)cc1)c1c(N)n(Cc2ccccc2)c(=O)[nH]c1=O`, the “hERG current change (%, negative = inhibition) at 1uM” value came out at 20.2%.

As to `O=C(CCN1C(=O)C2C3C=CC(C4CC34)C2C1=O)Oc1ccccc1` (stereo not shown), the “hERG current change (%, negative = inhibition) at 1uM” value was -4.6%.

As to `O=C(C1=NNCC1c1ccccc1)C1OC1c1ccccc1` (stereo not shown), the “hERG current change (%, negative = inhibition) at 1uM” value stood at 8.77%.

Take `Cc1ccc(SCC(=O)NCc2ccccc2)cc1`: the “hERG current change (%, negative = inhibition) at 1uM” value was determined as 12.8%.

On to `CN(C)c1cc[n+](CC(=O)Nc2c(Cl)cc(Cl)cc2Cl)cc1.[Cl-]`, for which the “hERG current change (%, negative = inhibition) at 1uM” value was 13.4%.

With `S=C(c1ccc2c(c1)OCO2)N1CCCCC1`, the “hERG current change (%, negative = inhibition) at 1uM” value came to 11%.

For the molecule `Cc1ccc(N2C(=O)CC(Sc3cccs3)C2=O)cc1` (stereo not shown), the “hERG current change (%, negative = inhibition) at 1uM” value turned out to be 13.2%.

On to `COC(=O)N/N=C/c1c(C)c(C(=O)c2ccc(F)cc2)n2ccccc12`, for which the “hERG current change (%, negative = inhibition) at 1uM” value is on record as -3.99%.

Turning to `CCNC(=O)OCc1cn(-c2ccc(Cl)cc2)nn1`, the “hERG current change (%, negative = inhibition) at 1uM” value was found to be 17.1%.

As for `COc1ccc(CCNc2ccncn2)cc1OC.Cl`, the “hERG current change (%, negative = inhibition) at 1uM” value is -0.346%.

On to `CCCCCCCCN=Cc1c(O)[nH]c(=O)[nH]c1=O`, for which the “hERG current change (%, negative = inhibition) at 1uM” value came to 12.7%.

With `O=C(NC1CCCC1)C(c1ccncc1)N(Cc1cccs1)C(=O)c1csnn1` (stereo not shown), the “hERG current change (%, negative = inhibition) at 1uM” value is listed as -4.78%.

For the molecule `CCOC(=O)C1CCCN(C(=O)CS(=O)(=O)Cc2ccccc2)C1` (stereo not shown), the “hERG current change (%, negative = inhibition) at 1uM” value was found to be 11.7%.

Consider `CC1(C)Oc2ccc3ccc(=O)oc3c2/C(=N/O)C1=O`, for which the “hERG current change (%, negative = inhibition) at 1uM” value came out at 20.3%.

In the case of `CCCc1[nH]c(=O)c(C#N)c2c1CCCC2`, the “hERG current change (%, negative = inhibition) at 1uM” value is reported as 20.1%.
